Results as given in the RNAGym collection of RNA variant scans (doi:10.1093/nar/gkz1192).
The source gives no read counts; variants with many changes may rest on few reads.

B1: CPEB3 Ribozyme (parent)
chain: UAACAGGGGGCCACAGCAGAAGCGUUCACGUCGCAGCCCCUGUCAGAUUCUGGUGAAUCUGCGAAUUCUGCUGUAUAUCUC

Variants of: B1
Experiment: self-cleavage, relative activity (ratio to wild type); higher = more cleavage; in vitro, sequencing
How it was run: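 Relative activity compares each variant's cleaved/total read fraction with that of the unmutated ribozyme. To get these fractions, barcoded CPEB3 ribozyme libraries from rounds of error-prone PCR were transcribed with T7 RNA polymerase for 5 hours at 37°C and then given 15 min of DNase I treatment before EDTA was added. The RNAs were reverse transcribed with template switching and sequenced on Illumina, and DNA sequencing linked barcodes to variants. A minimum of 5 reads applied, and three batches were averaged.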

Variant | self-cleavage
C27A U66C U72C | 0.15
C27A U69C A75U U80A | 0.14
C27G A28U G30U | 0.16
C27G A35U U41C U43C A45U U69C U76A | 0.03
C27G A45G A57G | 0.16
C27G A45G A64U U78A | 0.08
C27G C32A U72C C81U | 0.22
C27G G42A U54A U58C U69A A75U | 0.08
C27G G52A U78A U80C | 0.14
C27G G63A U76G | 0.18
C27G U31A U49C | 0.15
C27G U51A U67C | 0.15
C27G U51C A57U A64G U80C | 0.1
C27G U54C U60A U80C | 0.11
C27G U66A A75G U80A | 0.09
C27U A28G A45U U72C A77G | 0.13
C27U A28G A64G | 0.4
C27U A28G G30A G33C C38U A57C | 0.2
C27U A28G U41C G52A U54C U69A U72A | 0.06
C27U A28U U41A U43C | 0.18
C27U A28U U41A U43C U69A | 0.11
C27U A35G A47G | 0.49
C27U A35G G63A | 0.23
C27U A35U C62G U66C U80C | 0.21

Variant | self-cleavage
C27U A47G U58A A65G | 0.14
C27U A56G C62G U80C | 0.24
C27U A56U U58C | 0.51
C27U A57G U60A U78C U80C | 0.14
C27U A57G U72A | 0.27
C27U A57U U60C U69A U74C U78C | 0.03
C27U A64G A75G | 0.13
C27U A64G G70C | 0.13
C27U C32A U60C | 0.13
C27U C34U A47G A64U | 0.18
C27U C37U G63U U66C U72A | 0.07
C27U C39U A57U U66C | 0.09
C27U C50A A57G A75G U80C | 0.05
C27U G30A U43A A45C U80C | 0.3
C27U G33A A35U A56U U60A U72C | 0.03
C27U G33A A47G A56U | 0.17
C27U G33A G42A U43C A45G A64U U80C | 0.36
C27U G36A U74A | 0.08
C27U U31C G42A | 0.76
C27U U31C U69C U72A U80A | 0.33
C27U U41A A47G A57C U76C | 0.06
C27U U41A A47G U69C A77C | 0.07
C27U U41C A57G | 0.15
C27U U41C G63A U66C U67C | 0.15

Variant | self-cleavage
C27U U41C U60A A65G U67A U69C | 0.06
C27U U43C U60A A65G U78C | 0.09
C27U U43C U60C | 0.14
C27U U49A U58C U72C | 0.07
C27U U49C G52C | 0.08
C27U U51C U58C | 0.2
C27U U51C U76C | 0.11
C27U U54A A64G A65G | 0.15
C27U U54A A64G A65G U69A G73A | 0.04
C27U U54A A65G | 0.14
C27U U54C U60A U67A C79A | 0.07
C27U U54C U80A | 0.25
C27U U54G U78A | 0.21
C27U U58A U60A A65C | 0.08
A28C A35G A45G C62U | 0.15
A28C A35G A65G | 0.42
A28C A35G A65G U67G | 0.25
A28C A35G U41A U43C U54A G63A U80C | 0.07
A28C A35G U51A A56G A65G U69A | 0.25
A28C A35U A45G | 0.2
A28C A35U A57U U67C G73U U78A | 0.04
A28C A35U U41A U54C U60A | 0.13
A28C A35U U51C U67A | 0.14
A28C A35U U69C C71G | 0.11

Variant | self-cleavage
A28C A45G G52A A75G U78C | 0.13
A28C A45G U78A | 0.21
A28C A47G U72C | 0.51
A28C A56G A64G U80A | 0.17
A28C C29A C34A U54C A56U | 0.34
A28C C29A U31A U48C A56G | 0.13
A28C C29U A45G U69C | 0.06
A28C C29U U31A A64U | 0.18
A28C C34A C40U A47G U54C | 0.04
A28C C37A A75G | 0.15
A28C C38U G46A | 0.06
A28C C39A U51C | 0.14
A28C C39U U54A A65G | 0.18
A28C C40G A45C A47G U48G | 0.06
A28C G33A A56U U66C U72A | 0.1
A28C G33C U51A A56U U60G | 0.06
A28C G36U U58C | 0.09
A28C G63U U72C | 0.59
A28C U31A G33A A64G | 0.08
A28C U31A U41C G42C | 0.4
A28C U31A U80A | 0.23
A28C U31C C37U U69C U78C C81U | 0.06
A28C U31C G33A | 0.19
A28C U31C U58A | 0.19

Variant | self-cleavage
A28C U41A A56U G63U A75G | 0.16
A28C U41A U49A U69C U80A | 0.19
A28C U41C A64G | 0.24
A28C U41C A64G A77G | 0.24
A28C U41C U43A | 0.18
A28C U41C U72A G73A | 0.37
A28C U41C U76A U78A | 0.36
A28C U41G A45G U60A | 0.24
A28C U43A U67G | 0.19
A28C U43C A45G A65G | 0.08
A28C U43C U58C | 0.4
A28C U48C A57U U67C | 0
A28C U48C U51A | 0.13
A28C U49C A75G | 0.14
A28C U49G A64G | 0.11
A28C U51C A65G | 0.17
A28C U51C U74A | 0.69
A28C U51C U80C | 0.67
A28C U51G U58A U80C | 0.16
A28C U54C A65G | 0.11
A28C U54C U69A U72A | 0.06
A28C U60A A64G U78C | 0.42
A28C U60C A65G U72G | 0.14
A28C U67A U69C | 0.06

Variant | self-cleavage
A28C U67C U72A | 0.39
A28C U67C U74A | 0.35
A28G A35C U51C | 0.31
A28G A35G A45G A65C C71A | 0.14
A28G A35G A45G U51C U67A U72A | 0.52
A28G A35G A47G U51C U58C A77U | 1.22
A28G A35G A56G A57G G61A A64U U80A | 0.2
A28G A35G A57C U58C U66C U78C | 0.09
A28G A35G A57G | 1.01
A28G A35G A57U | 0.32
A28G A35G A64G U72C A75G U80C | 1.04
A28G A35G C37A U43C U69C U74C | 0
A28G A35G C37G U48C A65G | 0.13
A28G A35G C39U A45U | 0.51
A28G A35G C40A U54G C71U | 0.12
A28G A35G G53A | 1.19
A28G A35G U43C U78A | 1.13
A28G A35G U43G A56U | 0.13
A28G A35G U49C G61A U76A U78C | 0.07
A28G A35G U69A | 0.56
A28G A35G U72A | 0.74
A28G A35G U74A | 1.2
A28G A35G U78C | 1.12
A28G A35U A45C U60A U69C | 0.09

Variant | self-cleavage
A28G A35U A45U A47G | 0.15
A28G A35U A47U | 0.07
A28G A35U A64U U76C | 0.11
A28G A35U A65G | 0.14
A28G A35U C40A U48C U66C | 0.07
A28G A35U C40U C59A C81U | 0.17
A28G A35U C44A | 0.44
A28G A35U U41A A75U | 0.16
A28G A35U U41C A56G U66C U72C U78C | 0.04
A28G A35U U43C A56G | 0.15
A28G A35U U48C U80C | 0.09
A28G A35U U49A A56G A57G U58C | 0.13
A28G A35U U58G | 0.11
A28G A45C A64U | 0.15
A28G A45C U69C | 0.07
A28G A45G A47C U49C G70A A77U | 0.16
A28G A45G A47G | 0.29
A28G A45G A64G | 0.2
A28G A45G A64G U66C U72A | 0.05
A28G A45G A64U | 0.29
A28G A45G A64U U72C | 0.28
A28G A45G G46A | 0.11
A28G A45G G46C U48C G55A U69C A77G | 0.05
